{
  "source": "paper PMC4336329",
  "about": "(PLoS ONE, 2015)",
  "note": "Screen size: about 310,000 compounds; about 14,000 (4.5%) showed an effect of 50% or more. The effect is printed as a negative number. Some of the results follow.",
  "data": [
    {"biological_target": "human ether-à-go-go-related gene (hERG) potassium channel (human, UniProt Q12809)", "sequence (Q12809 whole entry, looked up)": "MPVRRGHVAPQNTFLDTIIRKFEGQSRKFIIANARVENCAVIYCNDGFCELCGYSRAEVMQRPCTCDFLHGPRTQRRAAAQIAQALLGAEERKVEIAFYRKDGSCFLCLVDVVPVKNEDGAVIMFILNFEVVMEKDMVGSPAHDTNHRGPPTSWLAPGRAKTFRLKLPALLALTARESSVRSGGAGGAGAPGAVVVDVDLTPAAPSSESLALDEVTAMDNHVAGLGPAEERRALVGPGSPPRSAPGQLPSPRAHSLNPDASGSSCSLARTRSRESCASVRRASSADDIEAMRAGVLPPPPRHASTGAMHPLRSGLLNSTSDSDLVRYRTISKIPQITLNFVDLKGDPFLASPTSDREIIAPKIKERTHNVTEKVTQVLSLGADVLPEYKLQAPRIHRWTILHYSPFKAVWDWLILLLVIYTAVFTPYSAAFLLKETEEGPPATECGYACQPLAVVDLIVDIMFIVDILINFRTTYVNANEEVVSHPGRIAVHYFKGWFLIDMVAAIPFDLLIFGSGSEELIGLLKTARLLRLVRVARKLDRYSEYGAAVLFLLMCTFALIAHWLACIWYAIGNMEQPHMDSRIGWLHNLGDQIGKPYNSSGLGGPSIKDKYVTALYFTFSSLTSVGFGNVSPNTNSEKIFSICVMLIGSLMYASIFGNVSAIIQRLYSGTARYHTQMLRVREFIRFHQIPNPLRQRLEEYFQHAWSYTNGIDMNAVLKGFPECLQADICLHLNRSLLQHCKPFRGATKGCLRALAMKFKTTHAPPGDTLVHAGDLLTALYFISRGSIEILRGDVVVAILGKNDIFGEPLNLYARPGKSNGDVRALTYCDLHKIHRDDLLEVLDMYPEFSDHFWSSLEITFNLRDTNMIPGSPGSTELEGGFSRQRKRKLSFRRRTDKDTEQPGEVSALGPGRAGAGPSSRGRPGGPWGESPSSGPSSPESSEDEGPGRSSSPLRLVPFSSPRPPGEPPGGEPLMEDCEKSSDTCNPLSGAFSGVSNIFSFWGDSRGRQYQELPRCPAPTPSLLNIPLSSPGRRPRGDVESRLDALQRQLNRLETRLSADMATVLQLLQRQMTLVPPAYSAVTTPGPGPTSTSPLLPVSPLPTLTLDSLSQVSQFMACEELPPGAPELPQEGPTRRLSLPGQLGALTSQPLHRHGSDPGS", "test": "primary screen, population patch clamp on CHO cells stably expressing hERG", "units": {"hERG current change (%, negative = inhibition) at 10uM": "%"}, "values": [
      {"compound": "CCOC(=O)N1CCC(NC(=O)CC2C(=O)NCCN2Cc2ccc(C)cc2)CC1", "note": "(stereo not drawn);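 note: peak tail current of the secondary pulse compared with the same well before compound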", "hERG current change (%, negative = inhibition) at 10uM": -27},
      {"compound": "O=C(CCS(=O)(=O)c1ccc(Br)s1)NC1CCCCCC1", "hERG current change (%, negative = inhibition) at 10uM": 10.4},
      {"compound": "CCc1nc(Nc2ccc(O)cc2)c2oc3ccccc3c2n1.Cl", "hERG current change (%, negative = inhibition) at 10uM": -13.6},
      {"compound": "CC(/C=C/c1ccc2c(c1)OCO2)=N\\NC(=O)C(O)c1ccccc1", "note": "(stereo not drawn)", "hERG current change (%, negative = inhibition) at 10uM": 8.18},
      {"compound": "CCOC(=O)c1sc(=S)n(-c2cc(F)ccc2F)c1N", "hERG current change (%, negative = inhibition) at 10uM": 10.1},
      {"compound": "Cc1c(NC(=O)CN2C(=O)C(=O)c3ccccc32)c(=O)n(-c2ccccc2)n1C", "hERG current change (%, negative = inhibition) at 10uM": 6.31},
      {"compound": "Cc1cc(C(=O)CN2C(=O)NC3(CCCc4sccc43)C2=O)c(C)n1-c1ccccc1", "note": "(stereo not drawn)", "hERG current change (%, negative = inhibition) at 10uM": 11.5},
      {"compound": "O=C(Nn1cnc2ccccc2c1=O)c1ccc([N+](=O)[O-])cc1", "hERG current change (%, negative = inhibition) at 10uM": 7.84},
      {"compound": "COc1ccc(C(=O)/C=C/c2cn(CN3CCN(C)CC3)c3ccccc23)cc1", "hERG current change (%, negative = inhibition) at 10uM": -30.4},
      {"compound": "CCC(C)(C)NC(=O)CN(C(=O)CCC(=O)Nc1nccs1)c1ccc(C)cc1", "hERG current change (%, negative = inhibition) at 10uM": -1.36},
      {"compound": "Cc1cc(OCC(=O)N2CCN(c3ccc(F)cc3)CC2)c2c(C)cc(=O)oc2c1", "hERG current change (%, negative = inhibition) at 10uM": 10.7},
      {"compound": "NC(=O)Cc1ccc(C(=O)c2ccc(Cl)cc2Cl)s1", "hERG current change (%, negative = inhibition) at 10uM": 1.46},
      {"compound": "Cc1ccc(CNS(=O)(=O)c2ccc3c(c2)CCN3C(=O)C2CCC2)cc1", "hERG current change (%, negative = inhibition) at 10uM": 4.29},
      {"compound": "COC(=O)c1c(NC(=O)CC2SC(N)=NC2=O)sc(C)c1C", "note": "(stereo not drawn)", "hERG current change (%, negative = inhibition) at 10uM": 10.5},
      {"compound": "COC(=O)CCC(=O)OC1(C)C(=O)C=C2C=C(C3CC3)N(c3ccc(CO)cc3)C=C2C1=O", "note": "(stereo not drawn)", "hERG current change (%, negative = inhibition) at 10uM": 22.6},
      {"compound": "CC(=O)n1cc(C(C[N+](=O)[O-])SCCN)c2ccccc21.Cl", "note": "(stereo not drawn)", "hERG current change (%, negative = inhibition) at 10uM": -9.3},
      {"compound": "C[C@H](NC(=O)OC(C)(C)C)C(=O)N/N=C/c1ccc2nccnc2c1", "hERG current change (%, negative = inhibition) at 10uM": 21.7},
      {"compound": "CC(C)c1ccc(-c2nc(N3CCCC3)nc3n[nH]c(N)c23)cc1", "hERG current change (%, negative = inhibition) at 10uM": -8.1},
      {"compound": "COC(CNC(=O)c1cccc2c1C(=O)N(Cc1cccnc1)C2)OC", "hERG current change (%, negative = inhibition) at 10uM": -15.3},
      {"compound": "CC1CCCN(C(=O)c2cc3c(-c4ccc(Cl)cc4)nn(C)c3s2)C1", "note": "(stereo not drawn)", "hERG current change (%, negative = inhibition) at 10uM": 1.28},
      {"compound": "CCOc1ccc(/C=N/NC(=O)CSc2ccccn2)cc1O", "hERG current change (%, negative = inhibition) at 10uM": -0.674},
      {"compound": "Cc1ccccc1NS(=O)(=O)c1nnc(NC(=O)c2ccccc2F)s1", "hERG current change (%, negative = inhibition) at 10uM": 10.7},
      {"compound": "Nc1ccc(-c2cnc[nH]2)cc1[N+](=O)[O-]", "hERG current change (%, negative = inhibition) at 10uM": -0.302},
      {"compound": "CC(=O)NCCc1nc2cc(NC(=O)c3ccc([N+](=O)[O-])cc3)ccc2n1C", "hERG current change (%, negative = inhibition) at 10uM": 7.72},
      {"compound": "Cc1ccc(S(=O)(=O)N2CCC(=O)N(C(COCc3ccc(Cl)cc3Cl)Cc3ccccc3)CC2)cc1", "note": "(stereo not drawn)", "hERG current change (%, negative = inhibition) at 10uM": 7.9},
      {"compound": "CCO[C@@H]1OC(C(=O)N2CCN(Cc3ccccc3)CC2)=C[C@H](c2ccccc2)[C@H]1CCCO", "hERG current change (%, negative = inhibition) at 10uM": 0.741},
      {"compound": "CCOC(=O)c1ccc(-c2ccc(/C=N/NC(=O)c3cncc(Br)c3)o2)cc1", "hERG current change (%, negative = inhibition) at 10uM": 0.672},
      {"compound": "COc1ccccc1CNC(=O)Cc1ccc(C)cc1", "hERG current change (%, negative = inhibition) at 10uM": -6.75},
      {"compound": "CCCCn1c(N)c(N(CCOC)C(=O)c2cccc(S(=O)(=O)N3CCCCC3)c2)c(=O)[nH]c1=O", "hERG current change (%, negative = inhibition) at 10uM": 8.89},
      {"compound": "CN1C(=O)CC(c2cn(Cc3ccccc3)c3ccccc23)C1=O", "note": "(stereo not drawn)", "hERG current change (%, negative = inhibition) at 10uM": -0.956},
      {"compound": "COc1ccccc1C(NC(C)=O)c1cc(Cl)c2cccnc2c1O", "note": "(stereo not drawn)", "hERG current change (%, negative = inhibition) at 10uM": 7.78},
      {"compound": "O=C(O)c1ccc(NC(=S)NC(=O)c2ccc3ccccc3c2)cc1", "hERG current change (%, negative = inhibition) at 10uM": -5.69},
      {"compound": "O=C(O)CC1(CC(=O)NCc2ccccn2)CCCCC1", "hERG current change (%, negative = inhibition) at 10uM": 4.78},
      {"compound": "COC(=O)C1=C(C(=O)OC)[C@@H]2N(C)c3ccc(OC)cc3[C@@]23C[C@@H](C(=O)OC)N(C(=O)c2ccco2)C3=N1", "hERG current change (%, negative = inhibition) at 10uM": -50.6},
      {"compound": "O=P(COc1ccccc1)(c1ccccc1)c1ccccc1", "hERG current change (%, negative = inhibition) at 10uM": -13.5},
      {"compound": "CC(C)c1cc(C(N)=O)c(NC(=O)c2cccc(COc3ccc(Br)cc3)c2)s1", "hERG current change (%, negative = inhibition) at 10uM": 21.9},
      {"compound": "C/C=C/c1ccc(OCCN2C(=O)NC(C)(C)C2=O)c(OC)c1", "hERG current change (%, negative = inhibition) at 10uM": 6.58},
      {"compound": "CNC(=O)NC(=O)C(C)OC(=O)c1cc2c(s1)CCCCC2", "note": "(stereo not drawn)", "hERG current change (%, negative = inhibition) at 10uM": -7.89},
      {"compound": "C/C(=N/NC(=O)CNC(=O)C1COc2ccccc2O1)c1cccc(O)c1", "note": "(stereo not drawn)", "hERG current change (%, negative = inhibition) at 10uM": -5.92},
      {"compound": "CCOC(=O)c1cc(C#N)c(Oc2ccc(F)cc2)nc1-c1ccccc1", "hERG current change (%, negative = inhibition) at 10uM": 12.9},
      {"compound": "Cc1cc(OC(=O)c2ccc(C)c(C)c2)c([N+](=O)[O-])c(=O)[nH]1", "hERG current change (%, negative = inhibition) at 10uM": 21.6},
      {"compound": "O=C(Nc1ccc(Br)cc1)c1ccc2c(c1)OCO2", "hERG current change (%, negative = inhibition) at 10uM": 14.5}
    ]}
  ]
}
